What was measured:
[1] = target: T1, human CD40 on the cell surface (human, UniProt P25942 21-277); assay: cell-based or functional assay
[2] = target: T2, human CD47 on the cell surface (human, UniProt Q08722); assay: flow cytometry on CHO-hCD47 cells, MFI
T2 construct: whole, on cells; also called CHO-hCD47; CD47 on Jurkat cell surface

[3] = target: T1, human CD40 on the cell surface; assay: flow cytometry on CHO-hCD40 cells, MFI
[4] = target: T3, recombinant human CD47-Fc; assay: ELISA on recombinant human CD47-Fc, OD450
T3 construct: the sheet prints no antigen name

[5] = target: T4, recombinant human CD40-Fc (human, UniProt P25942 fragment); assay: ELISA on recombinant human CD40-Fc, OD450
Sequence of recombinant human CD40-Fc (P25942 21-193): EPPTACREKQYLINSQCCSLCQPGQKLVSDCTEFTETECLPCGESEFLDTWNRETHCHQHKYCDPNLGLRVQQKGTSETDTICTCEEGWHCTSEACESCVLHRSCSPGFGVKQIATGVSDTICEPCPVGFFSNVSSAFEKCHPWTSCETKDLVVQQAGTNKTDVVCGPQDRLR
T4 construct: also called rh-CD40-Fc; CD40-hFc

[6] = target: T2, human CD47 on the cell surface; assay: flow cytometry, blocking of SIRPa-his (1 ug/mL) binding to CD47 on Jurkat cells
recombinant human CD16A [7] = target: T5, recombinant human CD16A (human, UniProt P08637 fragment); assay: ELISA on recombinant CD16A, OD450
Sequence of recombinant human CD16A (P08637 17-208 limits assumed): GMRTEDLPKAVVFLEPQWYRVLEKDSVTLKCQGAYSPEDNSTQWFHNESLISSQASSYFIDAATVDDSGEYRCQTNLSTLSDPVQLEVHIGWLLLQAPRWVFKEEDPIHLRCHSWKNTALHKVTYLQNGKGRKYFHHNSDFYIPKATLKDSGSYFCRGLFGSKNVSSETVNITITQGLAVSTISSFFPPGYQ
T5 construct: also called rh-CD16A

[8] = target: T6, CD16A on the cell surface (human, UniProt P08637); assay: flow cytometry on human NK cells, MFI
T6 construct: on the cell membrane; Cell-surface form; also called Jurkat-CD16A cells; human NK cells

EGFR Fc = target: T7, EGFR Fc (human, UniProt P00533 fragment); assay: ELISA on recombinant human EGFR-Fc, OD450
T7 construct: also called EGFR-hFc; recombinant human EGFR-Fc

[9] = target: T6, CD16A on the cell surface; assay: flow cytometry on Jurkat-CD16A cells, MFI
T6 sequence (P08637 17-254 limits assumed): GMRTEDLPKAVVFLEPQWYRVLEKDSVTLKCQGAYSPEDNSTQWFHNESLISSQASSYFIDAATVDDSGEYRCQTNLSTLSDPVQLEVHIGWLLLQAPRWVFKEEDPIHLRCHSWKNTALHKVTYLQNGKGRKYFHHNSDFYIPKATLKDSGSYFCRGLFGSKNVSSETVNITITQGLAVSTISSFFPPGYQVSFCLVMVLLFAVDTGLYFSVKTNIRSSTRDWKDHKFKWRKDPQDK

EGFR on the cell surface [10] = target: T8, EGFR on the cell surface (human, UniProt P00533); assay: flow cytometry on A431 cells, MFI; the filing does not name the target on this line, EGFR is taken as the tumour-cell arm of SM2235 (EGFR x CD16A)
T8 construct: full-length, on the cell membrane; Cell-surface form; also called EGFR on CHO-EGFR; CHO-K1-EGFR

EGFR on the cell surface [11] = target: T8, EGFR on the cell surface; assay: flow cytometry on MB231 cells, MFI; the filing does not name the target on this line, EGFR is taken as the tumour-cell arm of SM2235 (EGFR x CD16A)
mouse CD40 = mouse CD40 (mouse, UniProt P27512 20-193, limits assumed); assay: BLI
Sequence of mouse CD40 (P27512 20-193 limits assumed): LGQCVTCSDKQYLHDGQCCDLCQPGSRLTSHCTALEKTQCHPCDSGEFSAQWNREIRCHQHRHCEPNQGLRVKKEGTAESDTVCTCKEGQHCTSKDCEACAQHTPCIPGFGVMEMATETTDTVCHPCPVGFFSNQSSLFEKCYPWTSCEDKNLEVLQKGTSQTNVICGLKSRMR

rat CD47 = target: T9, rat CD47 (rat, UniProt P97829 19-140, limits assumed); assay: BLI
T9 sequence (looked up): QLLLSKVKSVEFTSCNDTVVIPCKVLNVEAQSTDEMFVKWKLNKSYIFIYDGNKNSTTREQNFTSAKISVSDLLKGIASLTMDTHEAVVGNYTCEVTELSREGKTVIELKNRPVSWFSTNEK

mouse CD47 = target: T10, mouse CD47 (mouse, UniProt Q61735 19-140, limits assumed); assay: BLI
T10 sequence (looked up): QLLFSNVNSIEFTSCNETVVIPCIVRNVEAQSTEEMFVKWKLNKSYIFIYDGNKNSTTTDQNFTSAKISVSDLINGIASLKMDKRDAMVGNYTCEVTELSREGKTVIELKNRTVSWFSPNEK

recombinant human CD40 = target: T11, recombinant human CD40 (human, UniProt P25942 fragment); assay: BLI, format not stated
Sequence of recombinant human CD40 (P25942 21-193 limits assumed): as the sequence (P25942 21-193) above
T11 construct: also called rh-CD40

cynomolgus monkey CD40 = target: T12, cynomolgus monkey CD40 (cynomolgus monkey, UniProt G7PG38 21-193); assay: BLI, format not stated
T12 construct: also called Cyno-CD40*

recombinant human CD47 = target: T13, recombinant human CD47 (human, UniProt Q08722 fragment); assay: BLI, format not stated
T13 construct: also called Rh-CD47; rh-CD47

cynomolgus monkey CD47 = target: T14, cynomolgus monkey CD47 (cynomolgus monkey, UniProt A0A2K5X523 19-139); assay: BLI, format not stated
T14 construct: also called Cyno-CD47

recombinant human ErbB2 = target: T15, recombinant human ErbB2 (human, UniProt P04626 fragment); assay: BLI
T15 construct: also called rh-ErbB2

recombinant human ErbB3 = target: T16, recombinant human ErbB3 (human, UniProt P21860 fragment); assay: BLI
T16 construct: also called rh-ErbB3

recombinant human ErbB4 = target: T17, recombinant human ErbB4 (human, UniProt Q15303 26-649); assay: BLI
T17 construct: also called rh-ErbB4
T17 sequence (looked up): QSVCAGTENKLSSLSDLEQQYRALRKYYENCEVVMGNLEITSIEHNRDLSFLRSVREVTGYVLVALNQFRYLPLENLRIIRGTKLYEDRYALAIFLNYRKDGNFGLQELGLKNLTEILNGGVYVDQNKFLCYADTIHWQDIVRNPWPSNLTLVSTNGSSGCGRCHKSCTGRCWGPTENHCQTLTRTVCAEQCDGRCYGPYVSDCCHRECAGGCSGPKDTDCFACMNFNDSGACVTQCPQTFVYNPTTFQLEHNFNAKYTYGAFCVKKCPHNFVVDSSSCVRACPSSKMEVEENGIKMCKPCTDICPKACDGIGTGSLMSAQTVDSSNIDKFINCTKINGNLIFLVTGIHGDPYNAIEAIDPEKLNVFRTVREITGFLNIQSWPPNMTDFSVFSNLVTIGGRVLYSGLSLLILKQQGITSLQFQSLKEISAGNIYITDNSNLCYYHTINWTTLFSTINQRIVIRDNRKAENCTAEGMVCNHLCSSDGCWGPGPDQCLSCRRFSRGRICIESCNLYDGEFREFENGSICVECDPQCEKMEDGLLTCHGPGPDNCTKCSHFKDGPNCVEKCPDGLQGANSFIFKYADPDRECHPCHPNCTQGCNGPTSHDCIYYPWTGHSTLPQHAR

mouse EGFR = mouse EGFR (mouse, UniProt Q01279 25-647); assay: BLI
rat CD16 = target: T18, rat CD16 (rat, UniProt P27645 37-221, limits assumed); assay: BLI
T18 sequence (looked up): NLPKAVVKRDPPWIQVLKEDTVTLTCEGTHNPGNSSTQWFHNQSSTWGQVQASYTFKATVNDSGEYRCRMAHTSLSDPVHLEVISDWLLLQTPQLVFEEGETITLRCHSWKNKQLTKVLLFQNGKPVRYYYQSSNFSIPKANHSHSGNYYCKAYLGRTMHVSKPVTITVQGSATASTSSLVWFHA

mouse CD16 = target: T19, mouse CD16 (mouse, UniProt P08508 31-215); assay: BLI
T19 sequence (looked up): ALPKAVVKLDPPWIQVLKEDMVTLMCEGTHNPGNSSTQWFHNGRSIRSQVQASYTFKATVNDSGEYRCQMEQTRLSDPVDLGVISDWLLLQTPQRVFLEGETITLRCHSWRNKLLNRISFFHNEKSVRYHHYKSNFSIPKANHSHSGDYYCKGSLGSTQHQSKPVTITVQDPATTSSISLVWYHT

recombinant human EGFR = target: T20, recombinant human EGFR (human, UniProt P00533 fragment); assay: BLI, format not stated
T20 construct: also called rh-EGFR

cynomolgus monkey EGFR = target: T21, cynomolgus monkey EGFR (cynomolgus monkey, UniProt A0A2K5WK39 25-645); assay: BLI, format not stated
T21 construct: also called Cyno-EGFR

recombinant human CD16A [12] = target: T22, recombinant human CD16A (human, UniProt P08637 fragment); assay: BLI, format not stated
T22 construct: also called rh-CD16A

cynomolgus monkey CD16A = target: T23, cynomolgus monkey CD16A (cynomolgus monkey, UniProt Q8SPW2 17-208); assay: BLI, format not stated
Sequence of cynomolgus monkey CD16A (Q8SPW2 17-208 limits assumed): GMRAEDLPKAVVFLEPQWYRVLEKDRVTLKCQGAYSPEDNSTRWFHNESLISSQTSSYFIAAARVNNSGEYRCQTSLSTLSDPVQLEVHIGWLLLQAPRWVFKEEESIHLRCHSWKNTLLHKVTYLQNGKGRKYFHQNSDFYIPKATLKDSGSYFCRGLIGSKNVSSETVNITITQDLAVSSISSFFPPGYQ
T23 construct: also called Cyno-CD16A

T1 sequence (P25942 21-277): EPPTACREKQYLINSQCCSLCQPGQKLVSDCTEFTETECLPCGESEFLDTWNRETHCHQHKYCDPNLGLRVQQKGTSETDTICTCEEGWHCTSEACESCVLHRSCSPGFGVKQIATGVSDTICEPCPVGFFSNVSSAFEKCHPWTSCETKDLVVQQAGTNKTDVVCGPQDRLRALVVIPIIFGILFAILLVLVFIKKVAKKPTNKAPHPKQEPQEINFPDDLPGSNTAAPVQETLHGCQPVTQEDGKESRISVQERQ

B1: SM2248 (bispecific antibody)
chain: EVQLVESGGGLVQPGGSLRLSCAASGGGRTFSNYALGWFRQAPGKEREFVAAISRSGGNINYADSVKGRFTISRDNFKNTLYLQMSSLRPEDTAVYYCAAHYLLLPSYISTSTNMYNYWGQGTQVTVKPGGGG[letters of human IgG1 Fc with N297A P374S (EU numbers) left out]SGGGGSGGGGSQVQLVESGGGLVQPGGSLRLSCSASGRAFNTYTMAWFRQAPGKERDFVAAISRDGTITYYADSVKGRFTISRDNSKNTLYLQMSSLRAEDTAVYYCAARRVGAVPERESAYEHWGQGTQVTVSS
notes: VHH-Fc-VHH chain specific for CD40 and CD47; also called SM2248-177; hA09-10*-Fc(S)-pgDD40-SZ-3-4F1
EC50 of luciferase signal in 293T-NFKB-CD40 reporter cells co-cultured with CHO-CD47 cells [1]: 0.1 nM | EC50 [2]: 0.2 nM | EC50 [3]: 0.8 nM | EC50 [4]: 0.12 nM | EC50 [5]: 0.19 nM | IC50 [6]: 2.6 nM

B2: SM2235 (bispecific antibody)
chain: QVQLVESGGGLVQPGGSLRLSCTASGIRFSFYTLGWYRQAPGKGRELVAEIYSSDNAKYADSVKGRFTISRDNAKNSLYLQMNSLRAEDTAVYYCNVRATDYWGPGTQVTVKPGGGG[letters of human IgG1 Fc with N297A P374S (EU numbers) left out]GGGSGGGGSGGGGSQVQLVESGGGLVQPGGSLRLSCRASGFTFSNHAMSWVRQAPGKGLEWVSEISFNGHATRYADSVKGRFTISRDNSKNTLYLQMNSLRAEDTAVYYCRKGWNATPQIGERGRGTQVTVSS
notes: VHH-Fc-VHH chain specific for EGFR and CD16A
EC50 (recombinant human CD16A [7]): 0.15 nM | EC50 [8]: 0.62 nM | EC50 (EGFR Fc): 0.14 nM | EC50 [9]: 0.6 nM | EC50 (EGFR on the cell surface [10]): 1.6 nM | EC50 (EGFR on the cell surface [11]): 1.02 nM

B3: SM2248-177, hA09-10*-Fc(S)-pgDD40-SZ-3-4F1, specific for CD40 and CD47 (bispecific antibody)
chain: B1 chain
binding result (mouse CD40): no binding | binding result (rat CD47): no binding | binding result (mouse CD47): no binding | Kd (recombinant human CD40): 0.0707 nM | koff (recombinant human CD40): 5.86e-05 s⁻¹ | kon (recombinant human CD40): 828000 M⁻¹ s⁻¹ | Kd (cynomolgus monkey CD40): 0.0528 nM | koff (cynomolgus monkey CD40): 3.36e-05 s⁻¹ | kon (cynomolgus monkey CD40): 636000 M⁻¹ s⁻¹ | Kd (recombinant human CD47): 0.08 nM | koff (recombinant human CD47): 7.11e-05 s⁻¹ | kon (recombinant human CD47): 888000 M⁻¹ s⁻¹ | Kd (cynomolgus monkey CD47): 0.757 nM | koff (cynomolgus monkey CD47): 0.00148 s⁻¹ | kon (cynomolgus monkey CD47): 1.95e+06 M⁻¹ s⁻¹

B4: SMSM2235-113, specific for EGFR and CD16A (bispecific antibody)
chain: B2 chain
binding result (recombinant human ErbB2): no binding | binding result (recombinant human ErbB3): no binding | binding result (recombinant human ErbB4): no binding | binding result (mouse EGFR): no binding | binding result (rat CD16): no binding | binding result (mouse CD16): no binding | Kd (recombinant human EGFR): 0.346 nM | koff (recombinant human EGFR): 0.000128 s⁻¹ | kon (recombinant human EGFR): 369000 M⁻¹ s⁻¹ | Kd (cynomolgus monkey EGFR): 0.2 nM | koff (cynomolgus monkey EGFR): 0.00017 s⁻¹ | kon (cynomolgus monkey EGFR): 850000 M⁻¹ s⁻¹ | Kd (recombinant human CD16A [12]): 0.0385 nM | koff (recombinant human CD16A [12]): 4.28e-05 s⁻¹ | kon (recombinant human CD16A [12]): 1.11e+06 M⁻¹ s⁻¹ | koff (cynomolgus monkey CD16A): 4.28e-05 s⁻¹ | kon (cynomolgus monkey CD16A): 1.11e+06 M⁻¹ s⁻¹

From patent US20250376535A1 (BEIJING STARMAB BIOMED TECHNOLOGY, published 2025)
